Data published in the RNAGym collection of RNA variant scans (doi:10.1101/gad.245936.114).
This sample is rich in variants without activity.

B1: tRNA (parent)
chain: CUCUCGGUAGCCAAGUUGGUUUAAGGCGCAAGACUUUAAUUUAUCACUACGAAAUCUUGAGAUCGGGCGUUCGACUCGCCCCCGGGAGAUUUUUUCCUCGAGCAA

Variants of: B1
Test: nonsense suppression (GFP-seq) (ratio to wild type); higher = more function; SUP4oc tRNA, yeast GFP reporter sort-seq
How it was run: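 Nonsense suppression (GFPSEQ) is the median GFP/RFP ratio of each sorting bin, weighted by the variant's estimated share of cells in that bin and expressed relative to the unmutated parent tRNA. Yeast strains carried genome-integrated variants of an ochre-suppressor tRNA from a library with ~3% random mutations, plus a galactose-driven GFP ochre reporter and RFP, and were grown in raffinose/galactose medium containing 80 mg/L adenine. Cells were sorted into GFP/RFP bins, each bin was Illumina-sequenced (phred ≥30), and variants were kept only with ≥100 reads and ≥30 cells.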

Nonsense suppression, ≤ 0.026:
G6C U55G
G6A U63C C83A
G6C G10A C12A C64U G67C U70C C72U
G6U U57C
G6A U17A G84U A89C
G6U A31U U63C
G6C U22A C29A A31C U63A U70G
G7A C27A U71G
G6C U8C G10U A13U
G6C U35C
G7A A14C G69C G73U C75U G88C
G6U C64G G66U U70G
G6U C11G
G6U G10C U58G
G7A G10A
G7A G10U
G6A U22G
G6C C11A G65A A74G
G6C A13U A14U U17G G18U G26C A31U G32A U55C A89U
G7C A23G A33U G69A G85A
G6C A9C A14U U22C
G7A A24C A60C G88U A89C
G6C G67U U71A
G6U G10A G67A
G6A U16A U35A
G6C U21A G69C
G6U C77G
G6C U63C
G7C A13C A14U U70A C83G
G6U C27U G61C C81U
G6A U8G
G7C A23U C77U
G7C A33U
G7A G19U A23U
G7A G26A G28A C82G A89U
G6C G59U
G6C G59A
G6A U8A U35A G69A
G6U G10U C75U
G7A G19U U58G
G6U A9C A30U C68A A89G
G7A A13C C27U U71C G85U
G6U U55C A89G
G6U U55C A89C
G7C A9C G15C U16G C72U
G7C A31G C77A
G6C G59U G66C G78A
G6U U35A
G6U U35G
G6U A62G G65A
G6A U55A G85A
G6A U76G
G6C U57C
G6C C79G
G6C G86U
G6U A30G G84U
G7A G26U A60G
G6U A87U
G6U U16G G59A G78A
G6C U58C
G6U C11A A30G G73C
G7A C11A U70C
G6U U20A U35A A62G C72A C79U
G7A C34U G78U
G6U U35G A62G
G7A U22C C27G G88C
G6C U20G A30G
G6C U57C G65A G67A A74C G78C
G7A A87G
G6C A13U A14G U20C
G6U G18U C34U A87G
G6U G69C
G7A C82G
G6A G78C
G6C A9C A13U U22A C29U U70C
G7C A14U C79A
G6U A60U
G6U A60C
G7C A23U C34G U63A C75A
G6U U16C U35C
G7A A62G
G6U G73C
G6U A9G A24C G66A U70C
G6C U22C U71A
G7A C34A U55A
G7A A33G C80G
G7A U55A
G7C A23G G67U
G6A U71C
G6U U17C G28U U55C G69U G88U
G6U C12A C29U G59A A62U U63G C80A
G7C C11G G18U U22A A31U A87C
G7A C68G C81A
G6C U22G U35A C79A
G7A G25C A30G
G6U C12G C82U C83A
G7A C11U U57C G61C
G7C A9G G26U C34U U70C G85A
G6C A14C A31G C34U A60G
G7A A89G
G7A A89U
G6C C12U
G6A U17A G59U
G7A A9G A14U
G7C C11G C79A
G6U A24U U57C G67A
G7A C34U
G7A C34G
G6U U70C
G7A U58C G59U A60C
G7C A13G U21G U63A C80A C82U
G7A U16G A31C A60C
G6A U58G
G6U G32U
G6C G7U
G7A A14C G59C C68G
G6U G15U A62U C79A G88A
G6U G84U
G7A U16G G26C U71G
G6C A14G A60C G65U C79G G86C
G6U A33G C80A
G6C G67A
G6C G67C
G6C A74U
G6U A13U G78U
G6U G78C
G7A U8A C11G G73C A87U
G6U A60G G61A G65C
G7A U70A A89C
G7A G78C C83U G88U
G6C C11A
G6C G65C G73C C75A
G7C C12A G25C U76A
G6C C80G G88U
G6C U21G C27G A54U G85C
G6U G7A A9C G85C
G6C A13U A23C
G6C U16C G69C
G6U G61C
G6A U21G A33G C83A
G7C A23C G84U
G7A G10U U17A U21C
G7A C56A
G6U G61A U70G
G7A G32U
G6U A54U C82A
G7A G15A U70C
G6U U58G G69A
G6C A13G
G6C A13U
G6C A24C G69A A74C A87C
G7A A14C G67U A74G
G6U C27U C34A
G7C A31G
G6U C81A
G7A G15C U16C
G7A A13G C27A A74G
G6C G10A
G7A A24C U55C
G6C U20G C29A A30C
G7C C27A
G7A A54C C64A
G6U C64U G85A G86A
G7C C11G
G6C C34A
G6C C29U U58C A60C U71G A74U C82G
G7A U8A G15U G19C A54U C56G G66U A87G
